Laboratory results taken from PubChem BioAssay (Tox21).
Values joined by “and” are separate entries in the source; they are usually repeats but may differ in a detail not shown here. Identical values can stand only once. The inconclusive results got no clear call from the source; some entries with a clear call stand among them for comparison. For some assays here: A potency beside an inconclusive call is a rough fit, not a confirmed value. Active and inactive are the calls of the source. Unless noted, the call rests on the fitted dose curve; in most records, active means well fitted curve in the direction sought with a large enough effect in the repeat runs; inconclusive means weak or mixed curves; inactive means no such curve, though single readings can be large; an effect the other way counts as inactive or inconclusive.

Columns and labels:
[1] = target: Progesterone receptor (Homo sapiens) (UniProt P06401); assay: qHTS assay to identify small molecule antagonists of the progesterone receptor (PR) signaling pathway (AID 1346795; active means well fitted inhibition curve with a large enough effect in the signal ratio in the repeat runs, not every such curve was filed as active; inconclusive means weak or mixed curves; the % refers to the signal ratio); conditions: PR-UAS-bla HEK293T, beta-lactamase FRET ratio, 16 h; series mostly up to 92.4 µM
UniProt P06401, sequence (P06401 whole entry, looked up): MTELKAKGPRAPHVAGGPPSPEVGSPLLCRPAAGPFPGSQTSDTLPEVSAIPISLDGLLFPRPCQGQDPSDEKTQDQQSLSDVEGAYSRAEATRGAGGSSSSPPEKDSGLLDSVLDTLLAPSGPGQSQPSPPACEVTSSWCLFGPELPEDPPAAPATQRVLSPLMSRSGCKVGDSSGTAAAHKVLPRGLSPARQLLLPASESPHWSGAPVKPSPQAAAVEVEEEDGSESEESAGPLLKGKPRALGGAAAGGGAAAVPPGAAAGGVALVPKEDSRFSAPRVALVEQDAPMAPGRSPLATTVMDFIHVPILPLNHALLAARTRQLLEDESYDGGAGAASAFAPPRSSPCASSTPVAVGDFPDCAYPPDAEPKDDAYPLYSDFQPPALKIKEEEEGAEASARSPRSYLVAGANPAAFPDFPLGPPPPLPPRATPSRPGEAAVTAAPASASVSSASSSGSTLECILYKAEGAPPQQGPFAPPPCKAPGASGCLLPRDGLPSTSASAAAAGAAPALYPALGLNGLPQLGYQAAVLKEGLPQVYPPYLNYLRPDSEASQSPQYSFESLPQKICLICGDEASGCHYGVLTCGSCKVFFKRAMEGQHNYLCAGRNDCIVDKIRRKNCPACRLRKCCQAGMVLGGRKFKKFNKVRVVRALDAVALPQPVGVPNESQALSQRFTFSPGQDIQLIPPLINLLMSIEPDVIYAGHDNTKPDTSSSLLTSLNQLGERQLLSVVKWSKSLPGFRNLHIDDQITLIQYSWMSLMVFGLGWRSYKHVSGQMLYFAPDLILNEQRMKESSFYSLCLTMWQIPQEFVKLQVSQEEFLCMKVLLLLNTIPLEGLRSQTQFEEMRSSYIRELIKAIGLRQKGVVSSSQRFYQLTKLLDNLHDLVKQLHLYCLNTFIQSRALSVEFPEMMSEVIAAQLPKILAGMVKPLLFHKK
Summary of the method: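 Inhibition of R5020-induced (1 nM final) beta-lactamase reporter signal in PR-UAS-bla HEK293T cells was scored by FRET fluorescence after overnight (16 hr) compound treatment.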

[2] = qHTS assay to identify small molecule antagonists of the progesterone receptor (PR) signaling pathway - cell viability counter screen (AID 1346798); further: nearly all actives have a fitted effect of over 50% in size
Summary of the method: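 ATP content as viability readout: CellTiter-Glo luminescence, 30 min room temperature, in PR-UAS-bla HEK293T cells after 16 hr compound/R5020 treatment at 37C and 5% CO2.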

[3] = qHTS assay to identify small molecule agonists of the progesterone receptor (PR) signaling pathway - cell viability counter screen (AID 1346799; calls by dose curve; further: nearly all actives have a fitted effect of over 45% in size)
Summary of the method: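 Cytotoxicity in PR-bla HEK293T cells: 16 h compound, 37C; CellTiter-Glo added post-FRET read; luminescence after 30 min RT.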

[4] = Human pregnane X receptor (PXR) small molecule agonists, qHTS cell viability counter screen (AID 1346977); further: nearly all actives have a fitted effect of over 50% in size
Summary of the method: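 Readout is CellTiter-Fluor fluorescence from PXR-Luc HepG2 cells. Plated cells rested 5hr, then were treated with compounds for 24hr at 37C and 5% CO2, with reagent present during the last hour.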

[5] = Caspase-3/7 induction in HepG2 cells by small molecules, qHTS cell viability counter screen (AID 1346981); further: nearly all actives have a fitted effect of over 30% in size
Summary of the method: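 CellTiter-Fluor fluorescence measured viability in the same wells used for Caspase-Glo 3/7. HepG2 (wild type) at 2,000 cells/well were pre-incubated 5 hr, dosed, and given reagent at 16 hr, with 1 hr further at 37C.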

[6] = target: Nuclear receptor subfamily 1 group I member 2 (Rattus norvegicus) (UniProt Q9R1A7); assay: Rat pregnane X receptor (rPXR) activation by small molecules, qHTS assay (AID 1346983); conditions: rPXR luciferase reporter cells, One-Glo luminescence, 24 h; max activation: stronger effect = higher value; further: nearly all actives have a fitted effect of over 20% in size
UniProt Q9R1A7, sequence (Q9R1A7 whole entry, looked up): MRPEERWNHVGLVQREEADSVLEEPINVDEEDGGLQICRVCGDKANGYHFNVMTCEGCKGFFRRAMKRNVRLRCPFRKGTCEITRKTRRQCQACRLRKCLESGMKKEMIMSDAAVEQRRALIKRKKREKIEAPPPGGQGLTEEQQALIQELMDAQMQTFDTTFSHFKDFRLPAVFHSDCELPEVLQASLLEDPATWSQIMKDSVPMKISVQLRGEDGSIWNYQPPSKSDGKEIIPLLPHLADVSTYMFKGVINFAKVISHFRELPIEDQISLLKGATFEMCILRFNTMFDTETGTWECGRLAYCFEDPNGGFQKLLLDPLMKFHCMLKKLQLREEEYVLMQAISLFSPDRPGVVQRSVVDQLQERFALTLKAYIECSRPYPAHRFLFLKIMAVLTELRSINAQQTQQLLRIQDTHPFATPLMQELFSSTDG
Summary of the method: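 Cell-based rPXR luciferase reporter assay, 2,000 cells per well, rested 5hr at 37 C before compound addition in DMSO, then 24 hr at 37 C. One-Glo reagent was added and luminescence read after 30 min at room temperature.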

[7] = target: Cytochrome P450 2D6 (Homo sapiens) (UniProt P10635); assay: Cytochrome P450 Family 2 Subfamily D Member 6 (CYP2D6) small molecule antagonists: luciferase reporter qHTS assay (AID 1671196); further: nearly all actives have a fitted effect of over 50% in size
UniProt P10635, sequence (P10635 whole entry, looked up): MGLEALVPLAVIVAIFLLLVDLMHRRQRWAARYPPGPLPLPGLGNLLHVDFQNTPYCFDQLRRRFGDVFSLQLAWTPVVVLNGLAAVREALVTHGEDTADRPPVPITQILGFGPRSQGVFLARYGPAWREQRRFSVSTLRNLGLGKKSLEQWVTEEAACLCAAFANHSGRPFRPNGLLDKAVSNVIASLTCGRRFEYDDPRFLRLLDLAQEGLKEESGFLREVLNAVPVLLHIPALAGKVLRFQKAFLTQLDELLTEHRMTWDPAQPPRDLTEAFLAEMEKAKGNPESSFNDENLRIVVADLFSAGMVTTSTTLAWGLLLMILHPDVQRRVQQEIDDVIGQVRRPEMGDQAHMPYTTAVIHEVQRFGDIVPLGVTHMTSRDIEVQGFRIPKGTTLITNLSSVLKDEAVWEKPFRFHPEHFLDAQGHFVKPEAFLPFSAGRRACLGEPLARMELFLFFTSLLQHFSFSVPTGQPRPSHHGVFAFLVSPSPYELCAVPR
Summary of the method: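 CYP2D6 activity was followed as luminescence from its luciferin product after a 1 h NADPH-driven reaction at room temperature. Enzyme-substrate mix and compound were pre-incubated for 10 min, and the signal was read 20 min after adding detection reagent.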

[8] = Caspase-3/7 induction in CHO-K1 cells by small molecules, qHTS cell viability counter screen (AID 1346979); conditions: CellTiter-Fluor fluorescence, 17 h; series mostly up to 92.4 µM; further: nearly all actives have a fitted effect of over 35% in size
Summary of the method: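 To flag cytotoxic compounds, treated CHO-K1 wild-type cells were given CellTiter-Fluor at 16hr and read fluorescently after 1hr at 37C; the caspase-3/7 luminescence was measured in these same wells.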

[9] = target: Cytochrome P450 2C19 (Homo sapiens) (UniProt P33261); assay: Cytochrome P450 Family 2 Subfamily C Member 19 (CYP2C19) small molecule antagonists: luciferase reporter qHTS assay (AID 1671197); further: nearly all actives have a fitted effect of over 65% in size
UniProt P33261, sequence (P33261 whole entry, looked up): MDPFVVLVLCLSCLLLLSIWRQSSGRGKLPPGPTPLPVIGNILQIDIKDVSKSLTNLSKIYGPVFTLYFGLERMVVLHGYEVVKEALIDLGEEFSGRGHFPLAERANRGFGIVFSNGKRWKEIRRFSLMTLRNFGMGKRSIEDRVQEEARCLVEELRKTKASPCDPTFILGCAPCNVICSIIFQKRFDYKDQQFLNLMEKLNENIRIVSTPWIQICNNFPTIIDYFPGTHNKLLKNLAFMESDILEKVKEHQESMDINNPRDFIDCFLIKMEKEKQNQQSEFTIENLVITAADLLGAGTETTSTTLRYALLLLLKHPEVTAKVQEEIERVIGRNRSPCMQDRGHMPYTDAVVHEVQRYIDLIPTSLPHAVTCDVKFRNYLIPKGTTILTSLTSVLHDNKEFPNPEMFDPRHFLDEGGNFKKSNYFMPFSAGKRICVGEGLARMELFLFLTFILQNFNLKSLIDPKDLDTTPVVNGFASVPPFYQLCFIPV
Summary of the method: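 Enzyme-substrate mix with proluciferin substrate (P450-Glo CYP2C19 system) preincubated with compounds 10 min at room temperature; NADPH regeneration solution added, 37C for 1 h; detection reagent stops reaction, luminescence read after 20 min. Ketoconazole positive control.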

[10] = target: Nuclear receptor subfamily 1 group I member 2 (Homo sapiens) (UniProt O75469); assay: Human pregnane X receptor (PXR) activation by small molecules, qHTS assay (AID 1346985); further: nearly all actives have a fitted effect of over 40% in size
Summary of the method: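 DPX-2 cells (HepG2 co-transfected with a PXR response element and a CYP3A4-promoter luciferase construct) were seeded at 2,000 per well, rested 5 hr at 37C, then exposed to DMSO-dissolved compounds for 24 hr. Activation was read as luciferase luminescence.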
Potency means the concentration at half of the fitted maximal effect; tags describe the fitted curve by direction and shape.

| Compound | Potency [1] | Potency [2] | Potency [3] | Potency [4] | Potency [5] | Potency [6] | Potency [7] | Potency [8] | Potency [9] | Potency [10] |
| --- | --- | --- | --- | --- | --- | --- | --- | --- | --- | --- |
| COCCOC(=O)C1=C(C)NC(C)=C(C(=O)OC/C=C/c2ccccc2)C1c1cccc([N+](=O)[O-])c1 (stereo unspecified) | active: 4.22 µM | inconclusive: 11.9 µM [rising, partial curve] | inconclusive: 10.6 µM [rising, partial curve] | inconclusive: 33.5 µM [cytotoxic, single point] | active: 29.8 µM | inconclusive: 10 µM [activator, partial curve] | active: 21.9 µM |  |  |  |
| O=C(OCCOCCO)c1ccccc1Nc1cccc(C(F)(F)F)c1 | active: 18.8 µM | inconclusive: 23.7 µM [rising, partial curve, poor fit] | inconclusive: 18.8 µM [rising, partial curve, poor fit] |  |  |  |  | inconclusive: 33.5 µM [cytotoxic] | inconclusive: 13.8 µM [inhibitor, full curve, poor fit] |  |
| COc1cc2c(cc1OC)C(C(C(=O)N(CCc1ccc(OC)c(OC)c1OC)CCc1ccc(OC)c(OC)c1OC)c1ccccc1)=NCC2 (stereo unspecified) | inactive | inconclusive: 23.7 µM [rising, partial curve] | inconclusive: 18.8 µM [rising, partial curve] | inconclusive: 33.5 µM [cytotoxic, single point] | active: 26.6 µM | active: 2.51 µM | active: 5.49 µM | active: 26.6 µM |  | active: 7.94 µM |
| O=C1N=C(O)CN1/N=C/c1ccc(-c2ccc([N+](=O)[O-])cc2)o1 | inconclusive: 38.6 µM [falling, partial curve] | inconclusive: 43.3 µM [rising, partial curve] | inconclusive: 43.3 µM [rising, partial curve] |  | active: 48.6 µM and inconclusive: 33.5 µM [cytotoxic, single point] |  |  | active: 54.5 µM and active: 26.6 µM |  |  |
